Reference: PubChem BioAssay AID434955 (Southern Research Specialized Biocontainment Screening …, 2010)
The list shows a part of the results. These are further read-outs of the screen, such as a control signal, another cell line or another target. No call is given for them. Most of these compounds were active or inconclusive in the main read-out, so they are no random draw.

Assay: beta-lactam sensitization of Mtb H37Rv, H37Rv (AID 434955);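 further: growth measured after seven days incubation then overnight dye step; 0% = bacteria only wells and 100% = bacteria with antibiotic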
Conditions: M. tuberculosis H37Rv growth with meropenem, percent inhibition; measured here: primary screen without meropenem; at 25 µM

Which inhibition does the source give for `O=C(Nc1nc2cc3c(cc2s1)OCCO3)c1ccc([N+](=O)[O-])o1` here?
Its inhibition is 99.5%.

With `CC1(C)Cc2c(cnn2-c2ccccc2)C(NC(=O)CCc2ccc(=O)[nH]n2)C1` (configuration not stated) as the compound, how does the inhibition read?
Its inhibition is -1.54%.

Which inhibition does the source give for `CCOC(=O)CSc1nc2ccc(Nc3nc(N4CCOCC4)nc(N4CCOCC4)n3)cc2s1` here?
The inhibition was 99.1%.

With `O=C(NN=C1CCCC1)c1cccs1` as the compound, how does the inhibition read?
The inhibition was 13.3%.

With `Cc1coc2c(C)c3oc(=O)c(CCC(=O)N4CCC(C(=O)NCCCC(=O)O)(c5ccccc5)CC4)c(C)c3cc12` as the compound, how does the inhibition read?
The inhibition was 5.29%.

For `Cc1cc(/C=N/NC(=O)CC#N)c(C)n1-c1ccc([N+](=O)[O-])cc1`, which inhibition is on record?
Its inhibition is 31.2%.

Which inhibition does the source give for `Oc1c(C(c2cccs2)N2CCN(c3ccccc3)CC2)ccc2cccnc12` (configuration not stated) here?
The inhibition was 30.5%.

With `Cn1nnnc1Sc1ncnc2scc(-c3ccc([N+](=O)[O-])cc3)c12` as the compound, how does the inhibition read?
Its inhibition is 96.2%.

Which inhibition does the source give for `CCOc1cc(/C=C2\C(=N)N3N=CSC3=NC2=O)ccc1OS(=O)(=O)c1ccccc1` here?
Its inhibition is -22.1%.

Which inhibition does the source give for `COc1ccc2ccccc2c1/C=N/NC(=O)c1cccc(C)c1` here?
The inhibition was 7.93%.

Which inhibition does the source give for `Cc1cc(C)nc(/N=C(/NC(=O)Nc2ccc(Cl)c(Cl)c2)Nc2cccc(Cl)c2)n1` here?
Its inhibition is -5.57%.

For `C/C(CC(=O)NCc1ccco1)=N\NC(=O)CC#N`, which inhibition is on record?
The inhibition was 34.6%.

For `Cc1ccc(C)c(OCC(=O)Nc2ccccc2N2CCCC2)c1`, which inhibition is on record?
The inhibition was 5.04%.

For `Cc1ccccc1OCc1nc2ccccc2c(=O)n1/N=C/c1cn[nH]c1-c1ccc(Br)cc1`, which inhibition is on record?
The inhibition was 8.94%.

For `COc1ccc(C(O)(C2CCCCC2)C(CN2CCCC2)c2ccccc2)cc1` (configuration not stated), which inhibition is on record?
Its inhibition is 5.23%.

Which inhibition does the source give for `COc1cccc(CN2CCNC(=O)C2CC(=O)NCCCC2CCCC2)c1OC` (configuration not stated) here?
Its inhibition is 0.65%.

With `CNC(=O)COC(=O)c1[nH]c(C)c(C(C)=O)c1C` as the compound, how does the inhibition read?
The inhibition was 5.45%.

Which inhibition does the source give for `Cc1nn(-c2ccccc2)c(Cl)c1/C=N/NC(=O)c1ccnn1C` here?
The inhibition was -0.48%.

Which inhibition does the source give for `Cc1ccc(C2=N/C(=C\c3cccc(F)c3)C(=O)O2)cc1` here?
Its inhibition is 49.4%.

For `CC(=O)N1c2ccc(S(=O)(=O)N(C)C3CCCCC3)cc2CC1C` (configuration not stated), which inhibition is on record?
The inhibition was -9.51%.

With `Cc1ccc(S(=O)(=O)N[C@@H](Cc2ccccc2)C(=O)N2CCC(C(=O)N[C@@H](CC(C)C)C(=O)O)CC2)cc1` as the compound, how does the inhibition read?
Its inhibition is 7.98%.

Which inhibition does the source give for `COc1ccc(-c2sc3cc(OC)c(OC)cc3c2C#CCCO)cc1` here?
Its inhibition is 71.3%.

With `CSc1ncc(CN2CCC(C(=O)Nc3cccc(-c4cscn4)c3)CC2)cn1` as the compound, how does the inhibition read?
The inhibition was 4.95%.

Which inhibition does the source give for `Cc1nn(-c2ccc(N3CCCCC3)nn2)c(C)c1CCC(=O)Nc1ccc(F)cc1` here?
Its inhibition is 2.44%.

Which inhibition does the source give for `CCOC(=O)c1nn(-c2ccc(C)cc2)c(C)c1C(C)=O` here?
Its inhibition is 2.39%.

With `Cc1ccc(C(=O)N/C(=C\c2cccs2)C(=O)N2CCN(C)CC2)cc1C` as the compound, how does the inhibition read?
Its inhibition is 0.74%.

Which inhibition does the source give for `COc1cc(NC(=O)c2ccccc2F)c(OC)cc1NC(=O)CN1CCOCC1` here?
Its inhibition is 16%.

Which inhibition does the source give for `C[C@]12CCC(=O)C=C1CC[C@@H]1C2[C@H](O)C[C@]2(C)C(=O)CCC12` (some centres not stated) here?
Its inhibition is 2.16%.

Which inhibition does the source give for `O=C(CSc1nnc(NC(=O)c2ccccc2[N+](=O)[O-])s1)NCC1CCCO1` (configuration not stated) here?
The inhibition was 4.2%.

With `COc1ccc(S(=O)(=O)N(C(=O)c2ccncc2)c2ccc3oc4c(c3c2)CCCC4)cc1` as the compound, how does the inhibition read?
Its inhibition is -15%.

Which inhibition does the source give for `O=C(NCC1CCCO1)c1cccc(NC(=O)c2ccc(Br)cc2)c1` (configuration not stated) here?
Its inhibition is 2.75%.

With `CCC/C(O)=C1\C(=O)CC(C)(C)CC1=NCc1ccccc1` as the compound, how does the inhibition read?
The inhibition was 30.1%.

Which inhibition does the source give for `COc1ccccc1-c1cc(C(F)(F)F)nc(S(=O)(=O)CCCC(=O)O)n1` here?
Its inhibition is 11.4%.

With `CC(=O)N1CCCN(C(=O)c2cc(COc3c(F)cccc3F)on2)CC1` as the compound, how does the inhibition read?
The inhibition was 3.59%.

Which inhibition does the source give for `O=C(CSc1ccc(Cl)cc1)NC1=NN(c2ccccc2)C(=O)C1` here?
The inhibition was -2.07%.

With `O=C(c1cc(-c2ccc(Cl)cc2)n[nH]1)N1CCN(C(=O)c2ccco2)CC1` as the compound, how does the inhibition read?
The inhibition was 2.57%.

Which inhibition does the source give for `CCOC(=O)c1[nH]c(C)c(C(=O)Nc2ccccc2C)c1C` here?
Its inhibition is -5.73%.

With `O=C(CN1CCCN(Cc2ccc(F)cc2)S1(=O)=O)NC1CCCC1` as the compound, how does the inhibition read?
The inhibition was -3.72%.

Which inhibition does the source give for `CC1(C)CC(=O)C(C=NCCN2CCN(CCc3ccccc3)CC2)=C(O)C1` here?
The inhibition was -1.89%.

With `CCc1ccc(C(=O)NC(=S)Nc2ccccc2N2CCOCC2)cc1` as the compound, how does the inhibition read?
The inhibition was 90.1%.

With `Cc1ccccc1OCC(=O)Nc1ccccc1N1CCCCC1` as the compound, how does the inhibition read?
Its inhibition is 6.87%.

Which inhibition does the source give for `Cc1ccc(-c2nc(NC(=O)c3nn(C)cc3[N+](=O)[O-])sc2C)cc1` here?
The inhibition was 0.94%.

For `CCc1c(C(=O)Nc2cc(C)cc(C)c2)[nH]c(C)c1C(C)=O`, which inhibition is on record?
The inhibition was -5.19%.

With `CN(C)S(=O)(=O)N(CC(=O)Nc1ccccc1F)c1ccccc1` as the compound, how does the inhibition read?
Its inhibition is 2.26%.

With `COc1cc2c(cc1OC)C(c1ccccc1)N(C(=O)c1ccco1)CC2` (configuration not stated) as the compound, how does the inhibition read?
The inhibition was 7.12%.

With `Cc1cccc(N2CCN(CC3CCCCC3)CC2)c1C` as the compound, how does the inhibition read?
Its inhibition is 28.8%.

With `O=C1c2ccccc2C(=O)N1Cc1nc(-c2ccccc2)no1` as the compound, how does the inhibition read?
The inhibition was 6.13%.

For `COC(=O)c1sccc1NC(=O)COc1ccc(Cl)cc1Cl`, which inhibition is on record?
Its inhibition is 1.18%.

With `CCOC(=O)c1cc(C(=O)Nc2ccc(S(=O)(=O)Nc3ccc(OC)cc3)cc2)nn1C` as the compound, how does the inhibition read?
The inhibition was 32.8%.

For `CCOC(=O)Cc1nc2ccccc2[nH]1`, which inhibition is on record?
The inhibition was 39%.

For `CCOC(=O)N1CCN(CC(=O)Nc2nnc(C(F)(F)F)s2)CC1`, which inhibition is on record?
Its inhibition is 55%.

Which inhibition does the source give for `COc1ccc(CCNC(=O)c2cc(COc3c(F)cccc3F)on2)c(OC)c1` here?
Its inhibition is -1.1%.
